# Source: the supplement of paper PMC8728848
# The list shows a part of the results.
# B1: CBM32-1 (Clostridium perfringens) (protein)
# chain: MGSSHHHHHHSSGLVPRGSHMASGVEITEGVTVTAKGNTEGNTADLAIDGDLSTYWESSNDYKWIEVDLGGIYELSKIEIFNKDEAVYKYNIYASEDGENFNKIAYKNNDNVSDSNGNVHTIDNVRAGKIRIDVVQNSNSDRVNIAEINVFG
# Legend:
# Test in all cases: glycan array binding signal (z-score within array); higher = stronger binding
# Details in all cases: glycan notation: IUPAC condensed, linker removed
# Fuc(a1-2)Gal = target: Fuc(a1-2)Gal
# How it was run: (§1)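 The Consortium for Functional Glycomics database supplied 3228 glycan arrays, of which those lacking an available protein sequence were dropped. The binding signal, a within-array Z-score, was averaged across arrays of the same protein sequence and across linkers. Negative scores can be read as non-binding.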
# Fuc(a1-2)Gal(b1-3)GalNAc = target: Fuc(a1-2)Gal(b1-3)GalNAc
# How it was run: as §1
# [1] = target: Fuc(a1-2)Gal(b1-3)GalNAc(b1-3)Gal
# How it was run: as §1
# [2] = target: Fuc(a1-2)Gal(b1-3)GalNAc(b1-3)Gal(a1-4)Gal(b1-4)Glc
# How it was run: as §1
# [3] = target: Fuc(a1-2)Gal(b1-3)GalNAc(b1-4)[Neu5Ac(a2-3)]Gal(b1-4)Glc
# How it was run: as §1
# Fuc(a1-2)Gal(b1-3)GlcNAc = target: Fuc(a1-2)Gal(b1-3)GlcNAc
# How it was run: as §1
# [4] = target: Fuc(a1-2)Gal(b1-3)GlcNAc(b1-3)Gal(b1-4)Glc
# How it was run: as §1
# [5] = target: Fuc(a1-2)Gal(b1-3)[Fuc(a1-4)]GlcNAc
# How it was run: as §1
# Fuc(a1-2)Gal(b1-4)Glc = target: Fuc(a1-2)Gal(b1-4)Glc
# How it was run: as §1
# Fuc(a1-2)Gal(b1-4)Glc6S = target: Fuc(a1-2)Gal(b1-4)Glc6S
# How it was run: as §1
# Fuc(a1-2)Gal(b1-4)GlcNAc = target: Fuc(a1-2)Gal(b1-4)GlcNAc
# How it was run: as §1
# [6] = target: Fuc(a1-2)Gal(b1-4)GlcNAc(b1-3)Gal(b1-4)GlcNAc
# How it was run: as §1
# [7] = target: Fuc(a1-2)Gal(b1-4)GlcNAc(b1-3)Gal(b1-4)GlcNAc(b1-3)Gal(b1-4)GlcNAc
# How it was run: as §1
# [8] = target: Fuc(a1-2)Gal(b1-4)GlcNAc6S
# How it was run: as §1
# [9] = target: Fuc(a1-2)Gal(b1-4)[Fuc(a1-3)]GlcNAc
# How it was run: as §1
# [10] = target: Fuc(a1-2)Gal(b1-4)[Fuc(a1-3)]GlcNAc(b1-3)Gal(b1-4)[Fuc(a1-3)]GlcNAc
# How it was run: as §1
# [11] = target: Fuc(a1-2)Gal(b1-4)[Fuc(a1-3)]GlcNAc(b1-3)Gal(b1-4)[Fuc(a1-3)]GlcNAc(b1-3)Gal(b1-4)[Fuc(a1-3)]GlcNAc
# How it was run: as §1
# Fuc(a1-2)Gal6S(b1-4)Glc = target: Fuc(a1-2)Gal6S(b1-4)Glc
# How it was run: as §1
# [12] = target: Fuc(a1-2)Gal6S(b1-4)Glc6S
# How it was run: as §1
# [13] = target: Fuc(a1-2)Gal6S(b1-4)GlcNAc
# How it was run: as §1
# Fuc(a1-2)[Gal(a1-3)]Gal = target: Fuc(a1-2)[Gal(a1-3)]Gal
# How it was run: as §1
# [14] = target: Fuc(a1-2)[Gal(a1-3)]Gal(b1-3)GlcNAc
# How it was run: as §1
# [15] = target: Fuc(a1-2)[Gal(a1-3)]Gal(b1-4)Glc
# How it was run: as §1
# [16] = target: Fuc(a1-2)[Gal(a1-3)]Gal(b1-4)GlcNAc
# How it was run: as §1
# [17] = target: Fuc(a1-2)[Gal(a1-3)]Gal(b1-4)[Fuc(a1-3)]GlcNAc
# How it was run: as §1
# [18] = target: Fuc(a1-2)[Gal(a1-4)]Gal(b1-4)GlcNAc
# How it was run: as §1
# [19] = target: Fuc(a1-2)[GalNAc(a1-3)]Gal
# How it was run: as §1
# [20] = target: Fuc(a1-2)[GalNAc(a1-3)]Gal(b1-3)GlcNAc
# How it was run: as §1
# [21] = target: Fuc(a1-2)[GalNAc(a1-3)]Gal(b1-4)Glc
# How it was run: as §1
# [22] = target: Fuc(a1-2)[GalNAc(a1-3)]Gal(b1-4)GlcNAc
# How it was run: as §1
# [23] = target: Fuc(a1-2)[GalNAc(a1-3)]Gal(b1-4)[Fuc(a1-3)]GlcNAc
# How it was run: as §1
# [24] = target: Fuc(a1-2)[GalNAc(a1-4)]Gal(b1-4)GlcNAc
# How it was run: as §1
# [25] = target: Fuc(a1-2)[GalNAc(b1-3)]Gal
# How it was run: as §1
# Fuc(a1-3)GlcNAc = target: Fuc(a1-3)GlcNAc
# How it was run: as §1
# [26] = target: Fuc(a1-3)[Gal(b1-4)]Glc6S
# How it was run: as §1
# [27] = target: Fuc(a1-3)[Gal(b1-4)]GlcNAc
# How it was run: as §1
# [28] = target: Fuc(a1-3)[Gal(b1-4)]GlcNAc(b1-2)Man(a1-3)[Fuc(a1-3)[Gal(b1-4)]GlcNAc(b1-2)Man(a1-6)]Man(b1-4)GlcNAc(b1-4)GlcNAc
# How it was run: as §1
# [29] = target: Fuc(a1-3)[Gal(b1-4)]GlcNAc(b1-2)Man(a1-6)[Gal(b1-4)GlcNAc(b1-2)Man(a1-3)]Man(b1-4)GlcNAc(b1-4)GlcNAc
# How it was run: as §1
# [30] = target: Fuc(a1-3)[Gal(b1-4)]GlcNAc(b1-3)Gal(b1-3)[Fuc(a1-4)]GlcNAc
# How it was run: as §1
# [31] = target: Fuc(a1-3)[Gal(b1-4)]GlcNAc(b1-4)Gal(b1-4)[Fuc(a1-3)]GlcNAc
# How it was run: as §1
# [32] = target: Fuc(a1-3)[Gal(b1-4)]GlcNAc(b1-4)Gal(b1-4)[Fuc(a1-3)]GlcNAc(b1-4)Gal(b1-4)[Fuc(a1-3)]GlcNAc
# How it was run: as §1
# [33] = target: Fuc(a1-3)[Gal(b1-4)]GlcNAc6S
# How it was run: as §1
# [34] = target: Fuc(a1-3)[Gal3S(b1-4)]Glc6S
# How it was run: as §1
# [35] = target: Fuc(a1-3)[Gal3S(b1-4)]GlcNAc
# How it was run: as §1
# [36] = target: Fuc(a1-3)[Gal3S(b1-4)]GlcNAc6S
# How it was run: as §1
# [37] = target: Fuc(a1-3)[GalNAc(b1-4)]GlcNAc
# How it was run: as §1
# Fuc(a1-4)GlcNAc = target: Fuc(a1-4)GlcNAc
# How it was run: as §1
# Fuc(b1-3)GlcNAc = target: Fuc(b1-3)GlcNAc
# How it was run: as §1
# Gal(a1-2)Gal = target: Gal(a1-2)Gal
# How it was run: as §1
# Gal(a1-3)Gal = target: Gal(a1-3)Gal
# How it was run: as §1
# Gal(a1-3)Gal(b1-3)GlcNAc = target: Gal(a1-3)Gal(b1-3)GlcNAc
# How it was run: as §1
# Gal(a1-3)Gal(b1-4)Glc = target: Gal(a1-3)Gal(b1-4)Glc
# How it was run: as §1
# Gal(a1-3)Gal(b1-4)GlcNAc = target: Gal(a1-3)Gal(b1-4)GlcNAc
# How it was run: as §1
# [38] = target: Gal(a1-3)Gal(b1-4)[Fuc(a1-3)]GlcNAc
# How it was run: as §1
# Gal(a1-3)GalNAc = target: Gal(a1-3)GalNAc
# How it was run: as §1
# [39] = target: Gal(a1-3)[Gal(a1-4)]Gal(b1-4)GlcNAc
# How it was run: as §1
# Gal(a1-4)Gal(b1-4)Glc = target: Gal(a1-4)Gal(b1-4)Glc
# How it was run: as §1
# Gal(a1-4)Gal(b1-4)GlcNAc = target: Gal(a1-4)Gal(b1-4)GlcNAc
# How it was run: as §1
# Gal(a1-4)GlcNAc = target: Gal(a1-4)GlcNAc
# How it was run: as §1
# Gal(a1-6)Glc = target: Gal(a1-6)Glc
# How it was run: as §1
binder,measurement,setting,value
B1,glycan array binding signal (z-score),Fuc(a1-2)Gal,-0.288
same,glycan array binding signal (z-score),Fuc(a1-2)Gal(b1-3)GalNAc,-0.463
same,glycan array binding signal (z-score),[1],1.21
same,glycan array binding signal (z-score),[2],-0.205
same,glycan array binding signal (z-score),[3],-0.373
same,glycan array binding signal (z-score),Fuc(a1-2)Gal(b1-3)GlcNAc,-0.171
same,glycan array binding signal (z-score),[4],-0.71
same,glycan array binding signal (z-score),[5],-0.766
same,glycan array binding signal (z-score),Fuc(a1-2)Gal(b1-4)Glc,-0.923
same,glycan array binding signal (z-score),Fuc(a1-2)Gal(b1-4)Glc6S,0.028
same,glycan array binding signal (z-score),Fuc(a1-2)Gal(b1-4)GlcNAc,-0.213
same,glycan array binding signal (z-score),[6],-0.461
same,glycan array binding signal (z-score),[7],0.515
same,glycan array binding signal (z-score),[8],-0.04
same,glycan array binding signal (z-score),[9],-0.577
same,glycan array binding signal (z-score),[10],-0.336
same,glycan array binding signal (z-score),[11],0.212
same,glycan array binding signal (z-score),Fuc(a1-2)Gal6S(b1-4)Glc,-0.366
same,glycan array binding signal (z-score),[12],0.812
same,glycan array binding signal (z-score),[13],-0.54
same,glycan array binding signal (z-score),Fuc(a1-2)[Gal(a1-3)]Gal,1.9
same,glycan array binding signal (z-score),[14],-0.527
same,glycan array binding signal (z-score),[15],-0.705
same,glycan array binding signal (z-score),[16],-0.226
same,glycan array binding signal (z-score),[17],-0.365
same,glycan array binding signal (z-score),[18],-0.647
same,glycan array binding signal (z-score),[19],0.167
same,glycan array binding signal (z-score),[20],-0.853
same,glycan array binding signal (z-score),[21],-0.136
same,glycan array binding signal (z-score),[22],-0.319
same,glycan array binding signal (z-score),[23],-0.114
same,glycan array binding signal (z-score),[24],0.059
same,glycan array binding signal (z-score),[25],-0.529
same,glycan array binding signal (z-score),Fuc(a1-3)GlcNAc,0.369
same,glycan array binding signal (z-score),[26],0.569
same,glycan array binding signal (z-score),[27],-0.371
same,glycan array binding signal (z-score),[28],1.55
same,glycan array binding signal (z-score),[29],-0.262
same,glycan array binding signal (z-score),[30],-0.493
same,glycan array binding signal (z-score),[31],0.331
same,glycan array binding signal (z-score),[32],-0.707
same,glycan array binding signal (z-score),[33],-0.235
same,glycan array binding signal (z-score),[34],1.22
same,glycan array binding signal (z-score),[35],-0.283
same,glycan array binding signal (z-score),[36],1.6
same,glycan array binding signal (z-score),[37],-0.154
same,glycan array binding signal (z-score),Fuc(a1-4)GlcNAc,-0.027
same,glycan array binding signal (z-score),Fuc(b1-3)GlcNAc,0.161
same,glycan array binding signal (z-score),Gal(a1-2)Gal,-0.565
same,glycan array binding signal (z-score),Gal(a1-3)Gal,-0.265
same,glycan array binding signal (z-score),Gal(a1-3)Gal(b1-3)GlcNAc,-0.526
same,glycan array binding signal (z-score),Gal(a1-3)Gal(b1-4)Glc,0.175
same,glycan array binding signal (z-score),Gal(a1-3)Gal(b1-4)GlcNAc,-0.092
same,glycan array binding signal (z-score),[38],0.312
same,glycan array binding signal (z-score),Gal(a1-3)GalNAc,0.851
same,glycan array binding signal (z-score),[39],-0.835
same,glycan array binding signal (z-score),Gal(a1-4)Gal(b1-4)Glc,-0.237
same,glycan array binding signal (z-score),Gal(a1-4)Gal(b1-4)GlcNAc,-0.181
same,glycan array binding signal (z-score),Gal(a1-4)GlcNAc,-0.924
same,glycan array binding signal (z-score),Gal(a1-6)Glc,-0.078
